From PubChem BioAssay AID1745853 (National Center for Advancing Translational Sciences (NCATS), 2022) come the findings set out here.

Some of the results follow. The main result of the screen is listed elsewhere. These columns were measured beside it and carry no call.

Common to all, as to assay: Primary Screen for Target Class Profiling of Small Molecule Inhibitors of Methyltransferases
For experiment [1], the target named is Glycine N-methyltransferase (Homo sapiens) (UniProt Q14749). To be noted: purified enzyme, MTase-Glo SAH luminescence; measured here: GNMT inhibition; at 40 µM; stronger effect = lower value. In short, it runs like this: (§1)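 Each enzyme was reacted with SAM and its substrate, with compounds tested once at 40 uM; SAH formed was read by MTase-Glo luminescence.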
Experiment [2] concerns the target Guanidinoacetate N-methyltransferase (Homo sapiens) (UniProt Q14353). Particulars: purified enzyme, MTase-Glo SAH luminescence; measured here: GAMT inhibition; at 40 µM; stronger effect = lower value. In short, it runs like this:
as §1

The target of experiment [3] is Histamine N-methyltransferase (Homo sapiens) (UniProt P50135). To be noted: purified enzyme, MTase-Glo SAH luminescence; measured here: HNMT inhibition; at 40 µM; stronger effect = lower value. Summed up: as §1
In experiment [4] the target is Nicotinamide N-methyltransferase (Homo sapiens) (UniProt P40261). To be noted: purified enzyme, MTase-Glo SAH luminescence; measured here: NNMT inhibition; at 40 µM; stronger effect = lower value. In short, it runs like this:
as §1

The target in experiment [5] is Phenylethanolamine N-methyltransferase (Homo sapiens) (UniProt P11086). Particulars: purified enzyme, MTase-Glo SAH luminescence; measured here: PNMT inhibition; at 40 µM; stronger effect = lower value. Summed up:
as §1
% is scaled to controls: 0 for no effect and ±100 for the full control effect.

Regarding `COC(=O)C1(C)CCC(O)C2(C)c3c(O)cc(C(C)C)cc3C(O)C(OC(C)=O)C12` (configuration not stated), the activity change, negative = inhibition is 0% in experiment [1]; 1.22% in experiment [2]; 4.51% in experiment [3]; -10.8% in experiment [4]; 3.91% in experiment [5].
On to `CC(C)NC(=O)N1Cc2ccccc2-n2cccc2C1c1cc(F)cc(F)c1` (configuration not stated), for which the activity change, negative = inhibition in experiment [1] is 7.59%; in experiment [2], 4.83%; in experiment [3], 4.14%; in experiment [4], -3.02%; in experiment [5], 3.89%.
Take `COc1cccc(CNC(=O)N2Cc3ccccc3-n3cccc3C2c2ccc(F)cc2)c1` (configuration not stated): the activity change, negative = inhibition in experiment [1] is -5.2%; in experiment [2], 0%; in experiment [3], 2.22%; in experiment [4], -2.69%; in experiment [5] it was 4.08%.
`CCOc1ccc(C2c3cccn3-c3ccccc3CN2C(=O)Nc2ccccc2CC)cc1` (configuration not stated): the activity change, negative = inhibition in experiment [1] is 0.304%; in experiment [2] it was 0%; in experiment [3], 11.9%; in experiment [4], 8.67%; in experiment [5], 7.8%.
The matching figures for `CCOc1ccc(C2c3cccn3-c3ccccc3CN2C(=O)NCc2ccc(C)cc2)cc1` (configuration not stated): 2.23%, 0%, 8.41%, 9.59% and 11.4%.
Take `Cc1ccc(C2c3cccn3-c3ccccc3CN2C(=O)NCc2ccccc2)cc1` (configuration not stated): the activity change, negative = inhibition in experiment [1] was 1.26%; in experiment [2], 2.91%; in experiment [3] it was 0.788%; in experiment [4], -3.82%; in experiment [5], -1.56%.
In the case of `O=C(O)c1cn(Cc2ccc(F)cc2Cl)nn1`, the activity change, negative = inhibition is -1.36% in experiment [1]; -0.838% in experiment [2]; 1.13% in experiment [3]; 0.502% in experiment [4]; -2.39% in experiment [5].
On the same counts, the results for `CCC1c2cccn2-c2ccccc2CN1C(=O)Nc1ccc(C)c(C)c1` (configuration not stated) are 0.815%, 0.492%, 5.24%, 2.78% and 7.74%.
Regarding `O=C(Nc1ccc(F)cc1)N1Cc2ccccc2-n2cccc2C1c1cccc(Cl)c1` (configuration not stated), the activity change, negative = inhibition turned out to be 9.94% in experiment [1]; 1.63% in experiment [2]; 3.75% in experiment [3]; 3.16% in experiment [4]; 7.84% in experiment [5].
On the same counts, the results for `CCOC(=O)c1ccccc1NC(=O)N1Cc2ccccc2-n2cccc2C1c1ccccc1C` (configuration not stated) are 15.8%, 0%, 8.86%, 1.18% and 8.65%.
As for `Oc1ccc2c(c1)C13CCCC[C@H]1[C@@H](C2)N(CC1CCC1)CC3`, the activity change, negative = inhibition in experiment [1] is -4.91%; in experiment [2], 5.28%; in experiment [3], -50.5%; in experiment [4] it was -24.2%; in experiment [5], -10.6%.
Take `Cc1ccc(CNC(=O)N2Cc3ccccc3-n3cccc3C2c2cccs2)cc1` (configuration not stated): the activity change, negative = inhibition in experiment [1] is 9.35%; in experiment [2], 1.76%; in experiment [3] it was -1.22%; in experiment [4], -8.93%; in experiment [5], -1.24%.
On the same counts, the results for `Cc1cc(SCc2sc(-c3ccc(C(F)(F)F)c(F)c3)nc2C)ccc1OCC(=O)O` are -24.5%, 11.4%, 6.51%, -26.5% and 8.77%.
The matching figures for `CC(C)C1c2cccn2-c2ccccc2CN1C(=O)Nc1ccc(Br)cc1F` (configuration not stated): 3.4%, 0.423%, -0.944%, 5.1% and 5.45%.
For `Cc1cccc(C2c3cccn3-c3ccccc3CN2C(=O)Nc2ccc(Br)c(C)c2)c1` (configuration not stated), the activity change, negative = inhibition turned out to be 10.8% in experiment [1]; 0.451% in experiment [2]; 12.2% in experiment [3]; 11.8% in experiment [4]; 8.8% in experiment [5].
As to `Cc1ccc(C2c3cccn3-c3ccccc3CN2C(=O)Nc2ccccc2Br)cc1` (configuration not stated), the activity change, negative = inhibition in experiment [1] was 4.31%; in experiment [2], -1.46%; in experiment [3], -0.169%; in experiment [4] it was -4.17%; in experiment [5], -2.27%.
Turning to `Cc1sc2c(c1C)C(c1ccc(Cl)cc1)=NC(CC(=O)OC(C)(C)C)c1nnc(C)n1-2` (configuration not stated), the activity change, negative = inhibition in experiment [1] is -1.35%; in experiment [3] it was 6%.
Turning to `CCOC(=O)Cc1ccc(NC(=O)N2Cc3ccccc3-n3cccc3C2c2cccs2)cc1` (configuration not stated), the activity change, negative = inhibition was 7.82% in experiment [1]; 0% in experiment [2]; -1.86% in experiment [3]; 1.69% in experiment [4]; 6.77% in experiment [5].
Turning to `CCOc1ccc(C2c3cccn3-c3ccccc3CN2C(=O)Nc2ccccc2OC)cc1` (configuration not stated), the activity change, negative = inhibition in experiment [1] is -1.57%; in experiment [2], 2.19%; in experiment [3], -2.58%; in experiment [4], -6.57%; in experiment [5] it was -3.56%.
On to `CC(=O)NBr`, for which the activity change, negative = inhibition was 0.189% in experiment [1]; 7.07% in experiment [2]; 2.41% in experiment [3]; -6.97% in experiment [4]; -1.53% in experiment [5].
Consider `CC(C)(O)[C@@H]1C2OC(=O)[C@@H]1[C@]1(O)C[C@H]3O[C@]34C(=O)O[C@H]2[C@]14C` (tested in a mixture with another compound), for which the activity change, negative = inhibition was 5.47% in experiment [1]; 10.8% in experiment [2]; 1.83% in experiment [3]; -4.14% in experiment [4]; 7.33% in experiment [5].
As for `CCc1ccc(C2c3cccn3-c3ccccc3CN2C(=O)Nc2ccccc2)cc1` (configuration not stated), the activity change, negative = inhibition in experiment [1] was 8.46%; in experiment [2], 3.3%; in experiment [3] it was 1.75%; in experiment [4], -1.57%; in experiment [5], 2.09%.
Turning to `CCc1ccc(C2c3cccn3-c3ccccc3CN2C(=O)Nc2ccccc2C(F)(F)F)cc1` (configuration not stated), the activity change, negative = inhibition in experiment [1] is 7.25%; in experiment [2] it was 0%; in experiment [3] it was -4.45%; in experiment [4], 0.132%; in experiment [5] it was 5.47%.
Regarding `Cc1cc(C)cc(NC(=O)N2Cc3ccccc3-n3cccc3C2c2cccs2)c1` (configuration not stated), the activity change, negative = inhibition in experiment [1] is 2.5%; in experiment [2] it was 0%; in experiment [3] it was -0.674%; in experiment [4], -0.773%; in experiment [5] it was 3.98%.
For `CCOC(=O)CNC(=O)N1Cc2ccccc2-n2cccc2C1c1cc(F)cc(F)c1` (configuration not stated), the activity change, negative = inhibition in experiment [1] was -0.408%; in experiment [2], 4.8%; in experiment [3], -1.77%; in experiment [4] it was -12.6%; in experiment [5] it was -0.4%.
`Cc1c2ccncc2c(C)c2c1[nH]c1ccccc12`: the activity change, negative = inhibition was -71.1% in experiment [1]; -52.9% in experiment [2]; -66.5% in experiment [3]; -62.5% in experiment [4]; -69% in experiment [5].
Consider `CC(C)C1c2cccn2-c2ccccc2CN1C(=O)Nc1ccc(F)c(Cl)c1` (configuration not stated), for which the activity change, negative = inhibition amounted to 0.881% in experiment [1]; 0% in experiment [2]; 4.17% in experiment [3]; 4.75% in experiment [4]; 4.41% in experiment [5].
The matching figures for `COc1cc(OC)c(NC(=O)N2Cc3ccccc3-n3cccc3C2c2ccc(F)cc2)cc1Cl` (configuration not stated): -8.15%, 0.818%, -1.86%, 0.396% and 4.25%.
On the same counts, the results for `Cc1cccc(C2c3cccn3-c3ccccc3CN2C(=O)NCc2ccccc2)c1` (configuration not stated) are 5.87%, 0%, 5.84%, 2.41% and 2.31%.
Consider `Cc1ccc(C2c3cccn3-c3ccccc3CN2C(=O)Nc2ccc(C)cc2C)cc1` (configuration not stated), for which the activity change, negative = inhibition was 1.05% in experiment [1]; 1.15% in experiment [2]; -1.76% in experiment [3]; -4.13% in experiment [4]; -3.06% in experiment [5].
On the same counts, the results for `CC(C)NP(=O)(NC(C)C)OP(=O)(NC(C)C)NC(C)C` are -1.11%, 1.54%, 0.626%, -6.31% and 1.58%.
With `CCOc1ccc(C2c3cccn3-c3ccccc3CN2C(=O)Nc2cccc(OC)c2)cc1` (configuration not stated), the activity change, negative = inhibition is -0.959% in experiment [1]; 0.759% in experiment [2]; -0.129% in experiment [3]; -9.43% in experiment [4]; -0.33% in experiment [5].
In the case of `CN(C(=O)CN1C(=O)COc2cc(Cl)c(Cl)cc21)[C@@H](CN1CCCC1)c1ccc(-c2cccc(C(N)=O)c2)cc1`, the activity change, negative = inhibition was -26.3% in experiment [1]; -1.21% in experiment [2]; -26.6% in experiment [3]; -32% in experiment [4]; -36.7% in experiment [5].
On the same counts, the results for `O=C(Nc1ccc2n(c1=O)C[C@H]1C[C@@H]2CN(C(=O)NC2CCCCC2)C1)c1ccco1` are -9.41%, -6%, -6.11%, -13.7% and -1.75%.
The matching figures for `CO[C@H]1[C@H](O)[C@H](O[C@H]2CC[C@]3(C=O)C4CC[C@]5(C)[C@H](C6=CC(=O)OC6)CC[C@]5(O)C4CC[C@@H]3C2)O[C@@H](C)[C@@H]1O` (some centres not stated): -9.4%, -9.52%, 1.46%, -17.4% and -4.56%.
Consider `COc1ccc(C2c3cccn3-c3ccccc3CN2C(=O)Nc2cc(OC)cc(OC)c2)cc1` (configuration not stated), for which the activity change, negative = inhibition in experiment [1] was 6%; in experiment [2], 0%; in experiment [3], -0.277%; in experiment [4], -0.051%; in experiment [5], 3.66%.
For the molecule `Cn1ncnc1COc1nn2c(-c3c(F)cccc3F)nnc2cc1C1CCC1`, the activity change, negative = inhibition in experiment [1] is -0.751%; in experiment [2], 4.07%; in experiment [3], 5.91%; in experiment [4], -17.3%; in experiment [5], 0.922%.
As for `CC(=O)N1N=C(c2ccc(N)cc2)c2cc3c(cc2C[C@H]1C)OCO3`, the activity change, negative = inhibition was 1.62% in experiment [1]; -2.92% in experiment [2]; 0.529% in experiment [3]; -19% in experiment [4]; -4.89% in experiment [5].
Regarding `CN1CC[C@@]2(C)c3cc(OC(=O)Nc4ccccc4)ccc3N(C)[C@@H]12`, the activity change, negative = inhibition was -15.9% in experiment [1]; 6.02% in experiment [2]; -9.35% in experiment [3]; -10.4% in experiment [4]; -0.918% in experiment [5].
